The values below are quoted from earlier work in article PMC11006913.

Some of the results follow.

One data set has as its target HOXD13 R306W (Homo sapiens) (UniProt P35453). To be noted: PBM; conditions not shown; double strand, one strand shown; scale: upbm affinity estimate (log intensity, higher = more binding, comparable within an allelic series).
GATAATCC [8-mer GATAATCC]: the binding signal is 10.5.

On to AATTTATG [8-mer AATTTATG], for which the binding signal was 11.5.

As to ACATGTCA [8-mer ACATGTCA], the binding signal is 10.3.

As to CATAAAAG [8-mer CATAAAAG], the binding signal is 11.5.

A further data set has as its target HOXD13 S316C (Homo sapiens) (UniProt P35453). To be noted: PBM; conditions not shown; double strand, one strand shown; scale: upbm affinity estimate (log intensity, higher = more binding, comparable within an allelic series).
Turning to AATTTATG [8-mer AATTTATG], the binding signal was 12.1.

For AGTTAATA [8-mer AGTTAATA], the binding signal was 12.1.

As to ACATGTCA [8-mer ACATGTCA], the binding signal is 10.6.

In the next data set the target is ISX (Homo sapiens) (UniProt Q2M1V0). As to conditions: PBM; conditions not shown; double strand, one strand shown; scale: upbm affinity estimate (log intensity, higher = more binding, comparable within an allelic series).
Sequence of UniProt Q2M1V0 (Q2M1V0 69-154): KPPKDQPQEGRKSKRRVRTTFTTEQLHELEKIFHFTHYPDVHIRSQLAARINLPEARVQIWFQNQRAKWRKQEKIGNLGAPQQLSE
As to AGATTGGG [8-mer AGATTGGG], the binding signal was 11.1.

With TTATGCAA [8-mer TTATGCAA], the binding signal is 11.2.

For ATTTTTAC [8-mer ATTTTTAC], the binding signal is 10.8.

For AGTTTAGA [8-mer AGTTTAGA], the binding signal was 10.9.

Turning to ATTACTCC [8-mer ATTACTCC], the binding signal was 12.2.

Take TAAATGTA [8-mer TAAATGTA]: the binding signal was 11.5.

Regarding AATGTAGC [8-mer AATGTAGC], the binding signal is 11.

Take CTATCAAA [8-mer CTATCAAA]: the binding signal was 10.8.

Consider GACATTAA [8-mer GACATTAA], for which the binding signal was 12.5.

Take CCATATAA [8-mer CCATATAA]: the binding signal was 11.

As for GGCATTTA [8-mer GGCATTTA], the binding signal was 11.2.

With GCTATTTA [8-mer GCTATTTA], the binding signal was 11.9.

Take AGTGTTAT [8-mer AGTGTTAT]: the binding signal is 10.9.

Take AAAATCAA [8-mer AAAATCAA]: the binding signal was 11.1.

In the case of GAATCATC [8-mer GAATCATC], the binding signal is 10.8.

For ACAATAAC [8-mer ACAATAAC], the binding signal was 11.5.

With AATATAGG [8-mer AATATAGG], the binding signal is 11.1.

Take CCATAATC [8-mer CCATAATC]: the binding signal was 12.

For AATAATGG [8-mer AATAATGG], the binding signal was 12.8.

For the sequence ATATCGAT [8-mer ATATCGAT], the binding signal is 10.7.

As to AATAGTTA [8-mer AATAGTTA], the binding signal is 12.1.

Consider TTAGATAA [8-mer TTAGATAA], for which the binding signal was 11.6.

As to AATGATCG [8-mer AATGATCG], the binding signal is 11.3.

With ATAAGGGC [8-mer ATAAGGGC], the binding signal was 10.9.

As to AATTCTAA [8-mer AATTCTAA], the binding signal is 11.7.

As to CACATTAA [8-mer CACATTAA], the binding signal is 12.7.

With AGTCGTTA [8-mer AGTCGTTA], the binding signal was 11.1.

As for TAACAACA [8-mer TAACAACA], the binding signal is 11.

With GATAACTA [8-mer GATAACTA], the binding signal is 11.7.

For AATGAGTC [8-mer AATGAGTC], the binding signal is 11.7.

For AATGAGAT [8-mer AATGAGAT], the binding signal is 11.9.

As to AATTGTTG [8-mer AATTGTTG], the binding signal was 12.6.

Turning to GTTACTTA [8-mer GTTACTTA], the binding signal is 11.4.

Consider CAATAGGG [8-mer CAATAGGG], for which the binding signal is 10.6.

For CACATTTA [8-mer CACATTTA], the binding signal was 11.4.
